# From the supplement of paper PMC8728848
# This is one part of the list.
# B1: Fm1D (Escherichia coli) (protein)
# chain: FSCNVDGGSSIGAGTTSVYVNLDPVIQPGQNLVVDLSQHISCWNDYGGWYDTDHINLVQGSAFAGSLQSYKGSLYWNNVTYPFPLTTNTNVLDIGDKTPMPLPLKLYITPVGAAGGVVIKAGEVIARIHMYKIATLGSGNPRNFTWNIISNNSVVMPTHHHHHH
# Assays:
# Assay in all cases: glycan array binding signal (z-score within array); higher = stronger binding
# Conditions in all cases: glycan notation: IUPAC condensed, linker removed
# [1] = target: Gal(b1-4)GlcNAc(b1-6)[Gal(b1-3)]GalNAc
# Method in brief: (§1)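 Glycan array binding is given as a within-array Z-score, which can be read as non-binding when negative. The arrays, 3228 of them, came from the Consortium for Functional Glycomics database and were retained only where the protein sequence was available. Z-scores were averaged across arrays of the same protein sequence at different concentrations or buffers and across linkers.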
# [2] = target: Gal(b1-4)GlcNAc(b1-6)[Gal(b1-4)GlcNAc(b1-3)]GalNAc
# Method in brief: as §1
# Gal(b1-4)GlcNAc6P = target: Gal(b1-4)GlcNAc6P
# Method in brief: as §1
# Gal(b1-6)Gal = target: Gal(b1-6)Gal
# Method in brief: as §1
# Gal3S(b1-3)GalNAc = target: Gal3S(b1-3)GalNAc
# Method in brief: as §1
# Gal3S(b1-3)GlcNAc = target: Gal3S(b1-3)GlcNAc
# Method in brief: as §1
# [3] = target: Gal3S(b1-3)[Fuc(a1-4)]GlcNAc
# Method in brief: as §1
# Gal3S(b1-4)Glc = target: Gal3S(b1-4)Glc
# Method in brief: as §1
# Gal3S(b1-4)Glc6S = target: Gal3S(b1-4)Glc6S
# Method in brief: as §1
# Gal3S(b1-4)GlcNAc = target: Gal3S(b1-4)GlcNAc
# Method in brief: as §1
# [4] = target: Gal3S(b1-4)[Fuc(a1-3)]Glc6S
# Method in brief: as §1
# [5] = target: Gal3S(b1-4)[Fuc(a1-3)]GlcNAc
# Method in brief: as §1
# [6] = target: Gal3S(b1-4)[Fuc(a1-3)]GlcNAc6S
# Method in brief: as §1
# Gal3S4S(b1-4)GlcNAc = target: Gal3S4S(b1-4)GlcNAc
# Method in brief: as §1
# Gal3S6S(b1-4)GlcNAc = target: Gal3S6S(b1-4)GlcNAc
# Method in brief: as §1
# Gal3S6S(b1-4)GlcNAc6S = target: Gal3S6S(b1-4)GlcNAc6S
# Method in brief: as §1
# Gal4S(b1-4)GlcNAc = target: Gal4S(b1-4)GlcNAc
# Method in brief: as §1
# Gal4S6S(b1-4)GlcNAc = target: Gal4S6S(b1-4)GlcNAc
# Method in brief: as §1
# Gal6P(b1-4)GlcNAc = target: Gal6P(b1-4)GlcNAc
# Method in brief: as §1
# Gal6S(b1-3)GlcNAc = target: Gal6S(b1-3)GlcNAc
# Method in brief: as §1
# Gal6S(b1-3)GlcNAc6S = target: Gal6S(b1-3)GlcNAc6S
# Method in brief: as §1
# Gal6S(b1-4)Glc = target: Gal6S(b1-4)Glc
# Method in brief: as §1
# Gal6S(b1-4)Glc6S = target: Gal6S(b1-4)Glc6S
# Method in brief: as §1
binder,measurement,setting,value
B1,glycan array binding signal (z-score),[1],10.7
same,glycan array binding signal (z-score),[2],-0.14
same,glycan array binding signal (z-score),Gal(b1-4)GlcNAc6P,-0.15
same,glycan array binding signal (z-score),Gal(b1-6)Gal,-0.047
same,glycan array binding signal (z-score),Gal3S(b1-3)GalNAc,-0.127
same,glycan array binding signal (z-score),Gal3S(b1-3)GlcNAc,-0.132
same,glycan array binding signal (z-score),[3],-0.143
same,glycan array binding signal (z-score),Gal3S(b1-4)Glc,-0.146
same,glycan array binding signal (z-score),Gal3S(b1-4)Glc6S,-0.14
same,glycan array binding signal (z-score),Gal3S(b1-4)GlcNAc,-0.144
same,glycan array binding signal (z-score),[4],-0.13
same,glycan array binding signal (z-score),[5],-0.145
same,glycan array binding signal (z-score),[6],-0.145
same,glycan array binding signal (z-score),Gal3S4S(b1-4)GlcNAc,-0.138
same,glycan array binding signal (z-score),Gal3S6S(b1-4)GlcNAc,-0.146
same,glycan array binding signal (z-score),Gal3S6S(b1-4)GlcNAc6S,-0.144
same,glycan array binding signal (z-score),Gal4S(b1-4)GlcNAc,-0.147
same,glycan array binding signal (z-score),Gal4S6S(b1-4)GlcNAc,-0.143
same,glycan array binding signal (z-score),Gal6P(b1-4)GlcNAc,-0.149
same,glycan array binding signal (z-score),Gal6S(b1-3)GlcNAc,-0.149
same,glycan array binding signal (z-score),Gal6S(b1-3)GlcNAc6S,-0.144
same,glycan array binding signal (z-score),Gal6S(b1-4)Glc,-0.145
same,glycan array binding signal (z-score),Gal6S(b1-4)Glc6S,-0.144
